Data published in the GPR68 mutational scans of Howard et al. (2025).
The least precise scores are not listed. Not listed are two conditions whose scores span a narrow range. Read del as a deletion of the residues named and ins as an insertion between two positions. For part of these data: The data file names ogerin without a concentration.

B1: GPR68, Q15743 (parent)
chain: MGNITADNSSMSCTIDHTIHQTLAPVVYVTVLVVGFPANCLSLYFGYLQIKARNELGVYLCNLTVADLFYICSLPFWLQYVLQHDNWSHGDLSCQVCGILLYENIYISVGFLCCISVDRYLAVAHPFRFHQFRTLKAAVGVSVVIWAKELLTSIYFLMHEEVIEDENQHRVCFEHYPIQAWQRAINYYRFLVGFLFPICLLLASYQGILRAVRRSHGTQKSRKDQIQRLVLSTVVIFLACFLPYHVLLLVRSVWEASCDFAKGVFNAYHFSLLLTSFNCVADPVLYCFVSETTHRDLARLRGACLAFLTCSRTGRAREAYPLGAPEASGKSGAQGEEPELLTKLHPAFQTPNSPGSGGFPTGRLA

Columns and labels:
[1] = variants of: B1; test: cAMP reporter score (Enrich2 score, wild type = 0); higher = more signal; HEK293T, FACS bins
[2] = variants of: B1; test: surface expression score (Enrich2 score, wild type = 0); higher = more signal; HEK293T, FACS bins

Variant | cAMP reporter score ([1]; pH 5.5) | cAMP reporter score ([1]; pH 6) | cAMP reporter score ([1]; pH 6, modulator: ogerin) | cAMP reporter score ([1]; pH 6.5, modulator: ogerin) | surface expression score [2]
MGNITADNSSMSCTIDHTIHQTLAPVVYVTVLVVGFPANCLSLYFGYLQIKARNELGVYLCNLTVADLFYICSLPFWLQYVLQHDNWSHGDLSCQVCGILLYENIYISVGFLCCISVDRYLAVAHPFRFHQFRTLKAAVGVSVVIWAKELLTSIYFLMHEEVIEDENQHRVCFEHYPGQAWQRAINYYRFLVGFLFPICLLLASYQGILRAVRRSHGTQKSRKDQIQRLVLSTVVIFLACFLPYHVLLLVRSVWEASCDFAKGVFNAYHFSLLLTSFNCVADPVLYCFVSETTHRDLARLRGACLAFLTCSRTGRAREAYPLGAPEASGKSGAQGEEPELLTKLHPAFQTPNSPGSGGFPTGRLA [I178G] | -1.18 | -0.823 | -0.618 | -1.26 | -0.847
MGNITADNSSMSCTIDHTIHQTLAPVVYVTVLVVGFPANCLSLYFGYLQIKARNELGVYLCNLTVADLFYICSLPFWLQYVLQHDNWSHGDLSCQVCGILLYENIYISVGFLCCISVDRYLAVAHPFRFHQFRTLKAAVGVSVVIWAKELLTSIYFLMHEEVIEDENQHRVCFEHYPHQAWQRAINYYRFLVGFLFPICLLLASYQGILRAVRRSHGTQKSRKDQIQRLVLSTVVIFLACFLPYHVLLLVRSVWEASCDFAKGVFNAYHFSLLLTSFNCVADPVLYCFVSETTHRDLARLRGACLAFLTCSRTGRAREAYPLGAPEASGKSGAQGEEPELLTKLHPAFQTPNSPGSGGFPTGRLA [I178H] | -1.21 | -0.744 | -1.8 | -1.14 | -0.821
MGNITADNSSMSCTIDHTIHQTLAPVVYVTVLVVGFPANCLSLYFGYLQIKARNELGVYLCNLTVADLFYICSLPFWLQYVLQHDNWSHGDLSCQVCGILLYENIYISVGFLCCISVDRYLAVAHPFRFHQFRTLKAAVGVSVVIWAKELLTSIYFLMHEEVIEDENQHRVCFEHYPKQAWQRAINYYRFLVGFLFPICLLLASYQGILRAVRRSHGTQKSRKDQIQRLVLSTVVIFLACFLPYHVLLLVRSVWEASCDFAKGVFNAYHFSLLLTSFNCVADPVLYCFVSETTHRDLARLRGACLAFLTCSRTGRAREAYPLGAPEASGKSGAQGEEPELLTKLHPAFQTPNSPGSGGFPTGRLA [I178K] | -1.26 | -1.38 | – | -0.672 | -0.736
MGNITADNSSMSCTIDHTIHQTLAPVVYVTVLVVGFPANCLSLYFGYLQIKARNELGVYLCNLTVADLFYICSLPFWLQYVLQHDNWSHGDLSCQVCGILLYENIYISVGFLCCISVDRYLAVAHPFRFHQFRTLKAAVGVSVVIWAKELLTSIYFLMHEEVIEDENQHRVCFEHYPLQAWQRAINYYRFLVGFLFPICLLLASYQGILRAVRRSHGTQKSRKDQIQRLVLSTVVIFLACFLPYHVLLLVRSVWEASCDFAKGVFNAYHFSLLLTSFNCVADPVLYCFVSETTHRDLARLRGACLAFLTCSRTGRAREAYPLGAPEASGKSGAQGEEPELLTKLHPAFQTPNSPGSGGFPTGRLA [I178L] | -0.005 | – | 1.23 | -0.553 | -0.445
